Reference: PubChem BioAssay (NCI)
Several values for one entry are separate records, joined by “and”; a condition that tells them apart may be missing. Equal entries are not always repeated.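 A five-concentration, 48-hour dose response in 96-well plates underlies each endpoint, interpolated linearly between surrounding concentrations. GI50 is the concentration that inhibits growth by half. Definition used: TGI = concentration required for complete inhibition of growth.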

Tested on: NCI-H322M lung
Experiment: NCI-60 cell line screen, 48 h

| Structure (SMILES) | TGI | GI50 [µM] |
| --- | --- | --- |
| Nc1ncnc2nn(C3OC(CO)C(O)C3O)nc12 (centres undefined) | 99.6 µM |  |
| Oc1ccccc1C=Nc1ccccc1N=Cc1ccccc1O.[Cu+2] | 20.5 µM | 6.63 |
| COc1cc2c(cc1O)C(c1cc(O)c(O)c(OC)c1)C(O)(C(=O)O)C(CO)C2O (centres undefined) | > 100 µM |  |
| COc1ccc(-c2nc3c(nc2-c2ccc(OC)cc2)N(C)S(=O)(=O)N=C3N)cc1 | > 100 µM |  |
| C/C=C1\CCC2c3[nH]c4ccccc4c3CCN2C1 (centres undefined) | > 100 µM |  |
| O=C1CCCC2=C1CC1=C(CCCC1=O)N2c1cccc([N+](=O)[O-])c1 | > 100 µM |  |
| CSc1nc(N)c2c(n1)NC(c1ccccc1)C1CCc3ccccc3C1=N2 (centres undefined) | > 100 µM | > 100 |
| COC[C@@H](N=CN1CCc2cc(OC)c(OC)cc2C1)C(C)(C)C | > 100 µM |  |
| O=S(=O)(NCCO)c1cc[c]([Sb](=[O])([OH])[OH])cc1 | > 100 µM | > 100 |
| N#CCCN(CCC#N)c1ccc(C(N=Nc2ccc(Cl)cc2)=Nc2ccc(Cl)cc2)cc1 | > 100 µM |  |
| Cc1cccc(C(=O)O)c1CC1NCCC2c3ccccc3NC12 (centres undefined) | > 100 µM |  |
| CC(=O)c1ccc2c(c1)N(CCCN(C)C)c1ccccc1S2 | 32.3 µM | 16.2 |
| COc1cc2cc3c4c(cc(OC)c(OC)c4c2cc1OC)CCN3C(=O)CCC(=O)O | > 100 µM |  |
| Cc1ccc(C)c(COCCOCn2c(=O)[nH]c(=O)c3cc(Br)ccc32)c1 | > 100 µM |  |
| O=C1CCCN1CCCN=c1cc2n(-c3ccc(Cl)cc3)c3ccccc3nc-2cc1Nc1ccc(Cl)cc1 | 76 µM |  |
| O=C(c1ccccc1)c1nn(-c2ccccc2)c2nc3nc(-c4ccccc4)cc(=O)n3nc12 | 48.3 µM | 22.4 |
| CCOC(=O)c1cn2c(ccc3sc4ccccc4c(=O)c32)n1 | > 100 µM |  |
| NCCN1C(=O)c2ccccc2C1(O)c1ccc(Cl)cc1 (centres undefined) | 50.9 µM |  |
| CCCCS(=O)CC(CO)NC(=O)/C=C/c1c(C)[nH]c(=O)[nH]c1=O (centres undefined) | 34.3 µM |  |
| O=P1(Oc2ccccc2)NCc2ncccc2O1 (centres undefined) | > 100 µM |  |
| CN(C)c1ccc(C(=C2C=CC(=[N+](C)C)C=C2)c2ccccc2Cl)cc1 | 2.17 µM | 0.327 |
| Clc1cccc2c1OCC1C(c3ccccc3)=NN(c3ccccc3)C21 (centres undefined) | > 100 µM |  |
| CC(=O)NC1=C(Sc2ccc(Cl)cc2)C(=O)c2ccccc2C1=O | 27.9 µM |  |
| CC(=O)N(C(C)=O)n1nc2c(n1)C(=O)c1ccccc1C2=O | > 100 µM |  |
| COC(=O)C1C(O)C(C)C(O)OC1C(C)C(O)C(C)/C=C\C=C(/C)C(=O)Nc1c(C)c(OC(C)=O)c2c(c1O)C(=O)C(C)=C1OCOC(/C(C)=C/C(C)=O)=C12 (centres undefined) | 23.7 µM |  |

| Structure (SMILES) | TGI | GI50 [µM] |
| --- | --- | --- |
| Nc1cc2nc3ccccc3oc-2cc1=O | 10.5 µM | 4.76 |
| Cc1ccc(S(=O)(=O)N2CCCSCCN(S(=O)(=O)c3ccc(C)cc3)CCCSCC2)cc1 | > 100 µM |  |
| CCN(CC)CCCNc1[nH]ncc2c(C)c3nc4ccccc4c3cc12 | 5.75 µM and 4.09 µM | 1.13 |
| Cc1c(-c2ccc(O)c(O)c2)oc(=O)c2c(O)cccc12 | 52.3 µM |  |
| Cc1nc2cccc([N+](=O)[O-])c2n1CCCN(C)C | > 100 µM |  |
| O=C1CCCC[C@H]1C(O)CC1CC(=O)N(c2ccccc2)C(=O)C1 (some centres undefined) | > 100 µM |  |
| CC(C)(C)OC(=O)NCCCCCCCCCCn1c2c(c3ccccc3c1=O)C(=O)c1ccccc1-2 | > 100 µM | > 100 |
| COC(=O)C1=COc2c(n(C)c3ccccc23)-c2ccccc21 | > 100 µM |  |
| C#C/C=C/CC1OC(C(Br)CC)CC(Br)C2CC1O2 (centres undefined) | > 100 µM |  |
| COc1ccc(N(C(=O)NCCO)c2ccccc2)cc1 | > 100 µM |  |
| COc1ccc2[nH]c(O)c(/C=c3/ccc4c(c3)N=C(c3ccc(F)cc3)N=4)c2c1 | 10.7 µM | 3.05 |
| FC(F)(F)c1[nH]ncc1-c1nc2ccc3[nH]ncc3c2c2c1CCCC2 | 6.45 µM | 1.59 |
| O=C1Nc2ccccc2/C1=C\c1c(Cl)nc2n1CCS2 | > 100 µM |  |
| CC12CCC(O)CC1=CCC1C2CCC2(C)C(c3cccnc3)=CCC12 (centres undefined) | > 100 µM | > 100 |
| COc1ccc(/C=C2\CN(C)CC3C2=NN(c2ccccc2)C3c2ccc(OC)cc2)cc1 (centres undefined) | > 100 µM |  |
| CSc1ccc2c(cc1=O)[C@@H](NC(=O)c1ccc([N+](=O)[O-])cc1)CCc1cc(O)c(O)c(O)c1-2 | > 100 µM |  |
| CCCCCCCCCCCCCCCCOc1ccc(/C=C/C2=[N+](CCCl)CCO2)cc1 | > 100 µM |  |
| CC(OC(=O)N(N(CCCl)S(C)(=O)=O)S(C)(=O)=O)c1ccc([N+](=O)[O-])cc1 (centres undefined) | > 100 µM | > 82.7 |
| Cc1ccc(C(=O)N=Nc2c(O)[nH]c3ccc(Cl)cc23)cc1 | > 50 µM | > 50 |
| CCCCCCCCCCCCCCNCC(OCC)OCC | 33.8 µM |  |
| O=c1[nH]c(=O)n2n1C1C=CC2CC1 | > 100 µM |  |
| Cc1nn(-c2ccccc2)c2nc3ccc(Cl)cc3c(-c3ccccc3)c12 | > 100 µM |  |
| CCOC(=O)C1=C(C)NC(C)=C(C(=O)OCC)C1c1ccc(C)cc1 | > 100 µM |  |
| CNC(=O)c1cc2c(Oc3ccc(NC(=S)NC(=O)Cc4ccccc4)cc3F)ccnc2cc1OC | > 100 µM | > 100 |
